Test results published in PubChem BioAssay AID1745845 (National Center for Advancing Translational Sciences (NCATS), 2022).
The campaign covered roughly 360,000 compounds. About 2,600 (0.72%) were called active. Inconclusive means that the source gave no clear call. Such entries were picked first, then a sample of the others. Calls come from the whole dose curve; as a rule, active = well fitted inhibition curve with a large enough effect; inconclusive = small, poorly fitted or top-dose-only effect; inactive = no such curve, though single readings can be large or run the other way. Potencies of inconclusive entries are doubtful fits and often do not repeat.
% is set by controls: 0 for no effect and ±100 for the full control effect; potency is the fitted concentration of half-maximal effect; tags give direction and shape of the fitted curve.

Test: Primary qHTS for Inhibitors of ATXN expression; note: nearly all actives have a fitted effect of over 55% in size
Conditions: HEK-293 ATXN2-luciferase reporter, luminescence, 24 h; activity change, negative = inhibition: at 57 µM (top of the series)
Procedure, shortened: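 ATXN2-luciferase reporter cells (luciferase flanked by upstream and downstream ATXN2 gene portions) were treated 24 h at 37 °C with compounds at up to 57 uM. SteadyGlo luminescence gave expression; GF-AFC fluorescence gave viability.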
For Cc1cccc(C2CN(C)CCc3c2cc(O)c(O)c3Cl)c1 (stereo unspecified), the Potency was inconclusive: 31.6 µM [inhibitor, single point].
For O=C(Nc1cccc(F)c1)C1CCCN(S(=O)(=O)c2cccc3cccnc23)C1 (stereo unspecified), the Potency was inconclusive: 31.6 µM [inhibitor, single point].
For O=[N+]([O-])c1ccccc1S(=O)c1ccccc1[N+](=O)[O-], the Potency was inconclusive: 39.8 µM [inhibitor, single point].
With Cc1[nH]nc2c1C1(C(=O)N(Cc3ccc(Cl)cc3)c3ccccc31)C(C#N)=C(N)O2 (stereo unspecified) the Potency was inconclusive: 39.8 µM [inhibitor, single point].
For COc1cc(/C=N/N=C2/C(=O)Nc3ccccc32)ccc1O, the Potency was “inactive”.
For CC(C)(CN1CCNCC1)NS(=O)(=O)c1ccc(Cl)cc1, the Potency was inconclusive: 14.1 µM [inhibitor, partial curve, poor fit].
In the case of Cc1ccccc1OCC(O)CNC1CCC(NCC(O)COc2ccccc2C)CC1 (stereo unspecified), the activity change, negative = inhibition is reported as inconclusive: -95.8% [inhibitor].
In the case of CCN1CCN(c2ccc([N+](=O)[O-])c(Sc3nc4ccccc4[nH]3)c2)CC1, the Potency is reported as “inactive”.
With O=c1c2cc(Br)ccc2nc(-c2ccc(Cl)cc2)n1O the Potency was inconclusive: 28.2 µM [inhibitor, single point].
With Cn1cc(CN(C(=O)Nc2ccccc2)C2CCCCC2)c2ccccc21 the Potency was inconclusive: 39.8 µM [inhibitor, single point].
With COc1ccc(-c2nc3sc(CCNC(=O)c4ccco4)c(C)n3n2)cc1 the Potency was inconclusive: 39.8 µM [inhibitor, single point].
For CN(C)Cc1csc(NC(=O)Nc2ccccc2Oc2ccccc2)n1, the Potency was inconclusive: 35.5 µM [inhibitor, single point].
With Cc1c[n+]([O-])ccc1[N+](=O)[O-] the Potency was inconclusive: 17.8 µM [inhibitor, partial curve, poor fit].
With COc1ccc([C@H]2CC(=O)C=C(c3ccc(F)cc3OCc3ccccc3)C2)cc1OC the Potency was inconclusive: 20 µM [inhibitor, partial curve, poor fit].
For CCN(CC)S(=O)(=O)c1ccc(-c2nnc(SCc3nnc(-c4ccccc4)o3)o2)cc1, the Potency was inconclusive: 15.8 µM [inhibitor, single point].
For Cc1ccc(-n2cc(CNCCc3cscn3)c(-c3ccc(F)cc3)n2)cc1, the Potency was inconclusive: 31.6 µM [inhibitor, single point].
For CCc1ccc2c(c1)NC(=O)C2(C)Cc1cccc(F)c1 (stereo unspecified), the Potency was inconclusive: 31.6 µM [inhibitor, single point].
In the case of Cc1cc(C)c2nc(C)cc(N/N=C/c3ccc(O)cc3)c2c1, the Potency is reported as inconclusive: 35.5 µM [inhibitor, single point].
For COc1ccc(/C=C/C(=O)NC(=S)N2CCSCC2)cc1, the Potency was “inactive”.
With COc1cc2c(cc1OC)CN(Cc1cc(=O)oc3c(C)c(C)ccc13)CC2 the Potency was inconclusive: 42.3 µM [inhibitor, single point].
In the case of CCC(=O)NC(c1ccc(OC)cc1)c1cc(Cl)c2cccnc2c1O (stereo unspecified), the Potency is reported as inconclusive: 3.98 µM [inhibitor, partial curve, poor fit].
In the case of CCOC(=O)c1cnc2ccc(C(=O)OC)cc2c1NCCCN1CCOCC1, the Potency is reported as “inactive”.
In the case of COc1ccc(Nc2nc3ccc(OC)cc3s2)cc1, the Potency is reported as “inactive”.
With Nc1cccc2c1C(=O)N(C(=O)/C=C/c1cccc(F)c1)C2=O the Potency was inconclusive: 39.8 µM [inhibitor, single point].
For CN(C)c1ccccc1-c1cc(NC=O)c2ncc(-c3cccc(C(F)(F)F)c3)n2c1, the Potency was inconclusive: 39.8 µM [inhibitor, single point].
With C/C(=N\NC(=O)c1ccc(OC2CCCC2)cc1)c1ccc(O)cc1 the Potency was inconclusive: 0.316 µM [inhibitor, partial curve, poor fit].
With CCOC(=O)[C@]12CCC=C1N(Cc1ccc(Cl)cc1Cl)C(=O)[C@H](CC(=O)NCCc1ccccc1OC)C2 the Potency was inconclusive: 39.8 µM [inhibitor, single point].
For COc1cccc(-c2cnc(C(O)c3ccc(Cl)c(F)c3)[nH]2)c1 (stereo unspecified), the Potency was “inactive”.
For Oc1c(C(c2ccccn2)N2CCOCC2)ccc2cccnc12 (stereo unspecified), the Potency was inconclusive: 39.8 µM [inhibitor, single point].
In the case of CCCCc1ccc(N/C(N)=N/c2nc(C)cc(C)n2)cc1, the Potency is reported as inconclusive: 39.8 µM [inhibitor, single point].
In the case of Cc1cccc(COC[C@H](CC(C)C)N2CCN(C(=O)c3ccc(C(F)(F)F)cc3)CCC2=O)c1, the Potency is reported as inconclusive: 28.2 µM [inhibitor, single point].
With COc1ccc(/C=N\n2nnc3ccccc32)cc1 the Potency was inconclusive: 39.8 µM [inhibitor, single point].
With COc1ccc(NC(=O)c2cccc(N3C(=O)c4cccc([N+](=O)[O-])c4C3=O)c2)cc1 the Potency was “inactive”.
With Cc1ccc(-n2nnc3c(=O)n(Cc4cc(C)ccc4C)cnc32)cc1 the Potency was inconclusive: 20 µM [inhibitor, partial curve, poor fit].
For COc1ccc(-c2cc(-c3ccccc3)n[nH]2)c(O)c1, the Potency was “inactive”.
For COc1cccc2c1OCC(CN1CCN(Cc3ccccc3F)C(CCO)C1)=C2 (stereo unspecified), the Potency was “inactive”.
With N=C(N)SCc1cn(-c2ccccc2)nc1-c1ccc(Br)cc1 the Potency was inconclusive: 37.7 µM [inhibitor, single point].
For Cc1cc(=O)oc2c(C)c(OC3CCCCC3=O)ccc12 (stereo unspecified), the Potency was “inactive”.
In the case of CCCCCc1cc(=O)oc2c(C(CCN3CCCCC3)c3ccc(OC)cc3)c(OC)cc(OC)c12 (stereo unspecified), the Potency is reported as inconclusive: 31.6 µM [inhibitor, single point].
With Cc1ccc(NC(=O)CSc2n[nH]c(-c3ccccn3)n2)cc1 the Potency was inconclusive: 25.1 µM [inhibitor, single point].
For Cc1ccccc1Cc1ccc(Cl)nn1, the Potency was inconclusive: 0.212 µM [inhibitor, partial curve, poor fit].
With Cc1ccc2occ(/C=N/NC(=O)[C@@H](N)Cc3ccccc3)c(=O)c2c1 the Potency was “inactive”.
With COc1ccc(CC(=O)N/N=C(\C)c2ccccn2)cc1 the Potency was inconclusive: 8.44 µM [inhibitor, partial curve, poor fit].
In the case of CCOc1cc(NC(=O)c2ccco2)c(OCC)cc1NC(=O)CCc1ccccc1OC, the Potency is reported as “inactive”.
In the case of CCOC(=O)c1c(NC(C)=O)sc2c1CCC(C=NCCCN(CC)CC)=C2Sc1ccccc1, the Potency is reported as inconclusive: 39.8 µM [inhibitor, single point].
With Cc1c(C(=O)COC(C)(C)C)[nH]c2ccccc12 the Potency was “inactive”.
With CCOC(=O)c1c(NC(=O)COC(=O)CNC(=O)c2ccco2)sc(C)c1C the Potency was inconclusive: 33.6 µM [inhibitor, partial curve, poor fit].
For CCc1ccc(NCc2nc3ccccc3c(=O)[nH]2)cc1, the Potency was “inactive”.
With O=C(CNC(=O)c1cccs1)NCC(=O)OCC(=O)c1ccc([N+](=O)[O-])cc1 the activity change, negative = inhibition was inactive: -0.0221% [at 11.3 µM].
With O=[N+]([O-])c1cc(-c2ncccn2)c([N+](=O)[O-])s1 the Potency was inconclusive: 31.6 µM [inhibitor, single point].
For O=c1ccc2nc3ccccc3sc-2c1, the Potency was inconclusive: 31.6 µM [inhibitor, single point].
For Cc1cc(C)cc(NC(=O)N2CCCN(c3ncccc3[N+](=O)[O-])CC2)c1, the activity change, negative = inhibition was inconclusive: -41.5% [inhibitor].
With CN(C)C(=O)CCc1ccc2c3c([nH]c2c1)[C@]1(C)[C@@H](C(=O)N2CCCCC2)C[C@H](CC(=O)NCC24CC5CC(CC(C5)C2)C4)C(=O)N1CC3 the Potency was inconclusive: 39.8 µM [inhibitor, single point].
For CCOC(=O)CC1C(=O)NCCN1C(=O)c1ccc(Cl)cc1 (stereo unspecified), the Potency was “inactive”.
For CCN(c1ccccc1)c1nc(C#N)nc(N(CC)c2ccccc2)n1, the Potency was inconclusive: 25.1 µM [inhibitor, single point].
With CO[C@@H]1C(N(C)C(=O)c2ccccc2)C[C@H]2O[C@]1(C)n1c3ccccc3c3c4c(c5c6ccccc6n2c5c31)C(=O)NC4=O (stereo partly specified) the Potency was inconclusive: 7.69 µM [inhibitor, partial curve].
In the case of CCCOP(=O)(c1ccc(N(C)C)cc1)C(O)c1c(Cl)cccc1Cl (stereo unspecified), the Potency is reported as “inactive”.
For O=C(CSc1ncc(-c2ccccc2)n1C1CCCC1)N1CCc2ccccc21, the Potency was inconclusive: 28.2 µM [inhibitor, single point].
For COC(=O)c1cc2c(n1S(=O)(=O)c1ccc(C)cc1)C(=O)C(=O)c1[nH]cc(C(=O)OCc3ccccc3)c1-2, the Potency was active: 2.99 µM.
With Nc1ccc2nc(-c3ccccc3)sc2c1 the Potency was inconclusive: 17.8 µM [inhibitor, single point].
With CNCCC1Sc2ccccc2Oc2ccccc21 (stereo unspecified) the Potency was inconclusive: 5.01 µM [inhibitor, partial curve, poor fit].
In the case of Cc1ccc2c(c1)c(C)c(C)n2CC(O)Cn1nc(C)c(Br)c1C (stereo unspecified), the Potency is reported as inconclusive: 28.2 µM [inhibitor, single point].
With Cc1cccc(C2c3[nH]c4ccccc4c3CCN2C(=O)Cc2nc(-c3ccccc3)n[nH]2)n1 (stereo unspecified) the Potency was “inactive”.
In the case of Cc1cccc(NC(=O)Cn2c(O)c(N=NC(=O)c3ccccc3O)c3ccccc32)c1, the Potency is reported as inconclusive: 29.9 µM [inhibitor, single point].
For Cc1cccc(N2CCN(CCCNC(=O)c3ccc(NC(=O)C4=CSCCO4)cc3)CC2C)c1 (stereo unspecified), the Potency was inconclusive: 31.6 µM [inhibitor, partial curve, poor fit].
With CCOC(=O)c1cc(=O)n2nc(-c3ccccc3F)nc2s1 the Potency was inconclusive: 39.8 µM [inhibitor, partial curve, poor fit].
